Several values for one entry are separate records, joined by “and”; a condition that tells them apart may be missing. Identical values can stand only once. Screen size: about 16,000 compounds; about 40 (0.2%) were called active. Inconclusive results (about 1%) are left out. Calls come from the whole dose curve; as a rule, active = well fitted activation curve with a large enough effect; inconclusive = small, poorly fitted or top-dose-only effect, or another doubt; inactive = no such curve, though single readings can be large or run the other way. Some of the results follow.
Target: Rap guanine nucleotide exchange factor 4 (Homo sapiens) (UniProt Q8WZA2)
Chain of UniProt Q8WZA2 (Q8WZA2 whole entry, looked up): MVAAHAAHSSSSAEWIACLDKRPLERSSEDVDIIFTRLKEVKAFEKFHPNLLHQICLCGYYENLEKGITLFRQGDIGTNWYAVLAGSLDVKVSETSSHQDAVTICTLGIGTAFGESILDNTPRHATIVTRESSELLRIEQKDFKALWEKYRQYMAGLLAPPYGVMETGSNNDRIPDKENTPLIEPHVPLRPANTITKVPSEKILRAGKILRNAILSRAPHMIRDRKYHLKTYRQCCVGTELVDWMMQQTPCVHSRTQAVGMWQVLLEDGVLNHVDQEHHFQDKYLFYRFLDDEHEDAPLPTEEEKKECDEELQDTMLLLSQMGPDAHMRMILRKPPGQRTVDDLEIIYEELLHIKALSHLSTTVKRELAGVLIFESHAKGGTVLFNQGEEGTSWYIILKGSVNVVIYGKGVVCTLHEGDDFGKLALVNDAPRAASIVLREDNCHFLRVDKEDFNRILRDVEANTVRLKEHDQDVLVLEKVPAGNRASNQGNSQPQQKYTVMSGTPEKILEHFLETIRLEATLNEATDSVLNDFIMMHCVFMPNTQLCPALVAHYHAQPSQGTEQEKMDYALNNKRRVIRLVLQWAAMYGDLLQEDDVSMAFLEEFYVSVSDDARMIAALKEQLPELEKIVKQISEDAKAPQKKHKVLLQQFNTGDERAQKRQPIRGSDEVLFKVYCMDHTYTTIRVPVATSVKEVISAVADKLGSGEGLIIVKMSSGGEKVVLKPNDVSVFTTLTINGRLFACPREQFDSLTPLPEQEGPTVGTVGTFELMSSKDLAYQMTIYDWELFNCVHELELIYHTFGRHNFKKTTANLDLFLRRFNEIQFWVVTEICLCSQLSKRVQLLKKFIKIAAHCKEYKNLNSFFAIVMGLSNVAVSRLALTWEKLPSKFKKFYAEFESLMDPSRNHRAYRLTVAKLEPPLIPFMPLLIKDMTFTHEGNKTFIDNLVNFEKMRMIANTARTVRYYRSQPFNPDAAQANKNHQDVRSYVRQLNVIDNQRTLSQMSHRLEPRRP
Experiment: Validation qHTS for agonist of cAMP-regulated guanine nucleotide exchange factor 4 (EPAC2);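 note: exchange makes BODIPY-GDP fluorescence drop when released from Rap1B; series mostly up to about 150 µM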
Conditions: EPAC2 Rap1B BODIPY-GDP exchange, fluorescence; activation: stronger effect = higher value
Method in brief: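 Fluorescent exchange assay: 100 nM EPAC2 with 250 nM RAP1B-BODIPY-GDP and 50 uM GDP; compound added, 5 min at room temperature, then read (ex 480/em 540 nm) every 5 min for 30 min. Normalized to 6.5 mM cAMP agonist control.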
% is set by controls: 0 for no effect and ±100 for the full control effect.

activation, inactive:
O=C(O)/C=C/c1ccc2c(c1)S(=O)(=O)N(C1CCCC1)[C@H]2CC(=O)O -14.8%, c1ccc(CN2CCN(Cc3ccc4c(c3)CN(Cc3c[nH]c5ccccc35)CCO4)CC2)nc1 -13.8%, Cc1ccc(CC(Cc2nc3ccccc3[nH]2)c2nc3ccccc3[nH]2)cc1 (stereo unspecified) -9.83%, O=C(NCCc1ccccc1)[C@@H]1CC=C[C@@H]2CCN(Cc3ccc(Cl)c(Cl)c3)C(=O)[C@@H]21 -20%, Cc1ncc2c(c1CNC(=O)/C=C/c1cccs1)CCN(C(=O)C1CCCO1)C2 (stereo unspecified) 2.68%, C1CCC(NC(=NC2C3CC4CC(C3)CC2C4)N2CCOCC2)CC1 (stereo unspecified) 5.03% and -1.04%, O=C(O)COc1ccccc1/C=N/NC(=O)c1ccncc1 -1.83%, NC(=O)c1ncn(C2OC(CO)C(O)C2O)c1N (stereo unspecified) -16.6%, Cc1oc(-c2ccccc2NC(=O)C2CCCO2)nc1CNC(=O)c1[nH]c2c(C)ccc(C)c2c1C (stereo unspecified) 8.6%, CC(/C=C/C=C(\C)C(=O)O[C@@H]1O[C@H](CO[C@@H]2O[C@H](CO)[C@@H](O)[C@H](O)[C@H]2O)[C@@H](O)[C@H](O)[C@H]1O)=C\C=C\C=C(C)\C=C\C=C(/C)C(=O)O[C@@H]1O[C@H](CO[C@@H]2O[C@H](CO)[C@@H](O)[C@H](O)[C@H]2O)[C@@H](O)[C@H](O)[C@H]1O -26.4%, CCCc1nn(C)c2c(=O)[nH]c(-c3cc(S(=O)(=O)N4CCN(C)CC4)ccc3OCC)nc12 -4.32% and -13.8%, CN1CCN(c2ncc3ncc(=O)n(C4CC4)c3n2)CC1 10.9%, COc1cc(O)c(C(=O)/C=C/c2ccccc2)c(OC)c1 12.8%, CN(C)C(=O)c1ccc(-c2nc(NC3CCNCC3)c3ccccc3n2)cc1 -19.4%, COc1cc(-c2noc(C)c2C#CC2(N)CCCCC2)cc(OC)c1OC -9.27%, CCCCOC(=O)c1cc2c(cn1)[nH]c1ccccc12 -31.7% and 7.86% and -9.86%, O=C(O)c1ccccc1Nc1cccc(C(F)(F)F)c1 -18.2% and -12.3%, OCCc1ccccc1 -1.25%, O=C(c1ccc(F)cc1)C1CCN(CCn2c(=S)[nH]c3ccccc3c2=O)CC1 -25.6%, COc1cc(C/C=C\c2ccccc2)c(OC)cc1O -36.7%, COc1ccc(CCCO[C@@H](Cn2ccnc2)c2ccc(OC)cc2)cc1 -10.1%, CC(C)NC(=O)N1CC[C@@]2(CCCN(C(=O)c3cnccn3)C2)C1 -17%, O=C(NCCN1CCOCC1)c1cnn(-c2nccc(-c3ccccc3F)n2)c1C1CC1 2.5%, O=c1c(CCc2ccccc2)nc2cnc(N3CCOCC3)nc2n1C[C@H]1CCCO1 -16.2%, O=C(c1cnsn1)N1CCOc2ccc(CN3CCOCC3)cc2C1 3.85%, CS(=O)(=O)N1CCC2(CCN(c3ccccn3)CC2)CC1 -2.33%, COc1cccc(CNC(=O)c2c(OC)cc(=O)n3c2CCN(C(=O)c2ccc(C)nc2)CC3)c1 0.453%, CCCCC/C=C\C/C=C\C/C=C\CCCCC(=O)O -19.5%, O=C(O)Cc1cc2ccccc2nc1C(=O)O -8.23%, COCC1CCCN(Cc2ccc3c(c2)CN(C(=O)c2ccc(OC)nc2OC)CCO3)C1 (stereo unspecified) -17.1%, N#Cc1cccc(-c2nccc(-n3ccnc3)n2)c1 1.09%, COCCNc1nc(-c2ccccc2OC)nc2ccccc12 2.95%, Cc1cccc(C)c1OCC(=O)N[C@@H](Cc1ccccc1)[C@@H](O)C[C@H](Cc1ccccc1)NC(=O)[C@H](C(C)C)N1CCCNC1=O -1.22%, CN(Cc1ccco1)Cc1cc(-c2ccnc3cc(Cl)ccc23)ccc1O -1.43%, Nc1ncnc2c1ncn2[C@H]1O[C@@H](CSCC[C@@H](N)C(=O)O)[C@H](O)[C@@H]1O 10.3%, O=C1O[C@H]([C@@H](O)CO)C(O)=C1O -0.197% and -3.05%, CN(C)c1ccc(C(=C2C=CC(=[N+](C)C)C=C2)c2ccccc2)cc1 -24.7%, COCCn1c(=O)c(-c2ccccc2)nc2cnc(N3CCN(C)CC3)nc21 -4.94%, CCNCCCNCCCNCCCNCC -20.4%, Clc1ccc(C(c2ccccc2Cl)C(Cl)Cl)cc1 (stereo unspecified) -34% and 17.4% and -1.36%, CN(C)c1ccc(-c2c(-c3ccc4c(c3)OCO4)noc2-c2ccsc2)cn1 -12.9%, CC(N)(C(=O)O)c1ccc(-c2nn[nH]n2)cc1 (stereo unspecified) -4.44%, O=C(NCC1CCC2(CCN(Cc3ccc4ncccc4c3)CC2)O1)C1CCCO1 (stereo unspecified) -1.31%, COc1ccc(C(=O)N(Cc2cc3cccc(C)c3nc2N(C)C)CC2CCCO2)cc1 (stereo unspecified) -3.26%, Cc1ccnc2ccc3ccccc3c12 -6.66%, O=C(Nc1cccc(F)c1)N1CC[C@@]2(CCCN(C(=O)c3cnccn3)C2)C1 -17.9%, COc1ncc2nc(-c3cn(C)c4ccccc34)c(=O)n(C)c2n1 -9.74%, CCCCN1CCCC[C@H]1C(=O)Nc1c(C)cccc1C -2.2%, Clc1ccccc1-c1nc(NCc2cccs2)c2ccccc2n1 6.74%, COc1ccc(CNc2cc(-c3ccccc3C)ncn2)c(OC)c1 -5.51%, CCOc1nc2cccc(C(=O)O)c2n1Cc1ccc(-c2ccccc2-c2nn[nH]n2)cc1 -14.1%, CS(=O)(=O)c1ccc(-c2cccc3c2OC(CNC(=O)c2cc(C4CC4)[nH]n2)C3)cc1 (stereo unspecified) -12.4%, O=C1CC[C@@H](O)CCN1CC[C@H](Sc1ccccc1)c1ccccc1 -7.18%, COc1ccccc1CN1CCCC2(CCN(C(C)=O)CC2)C1 -6.88%, CCCCCCCCCCCCCCCCCCNC(=O)OCC(COP(=O)([O-])OCC[n+]1ccsc1)OC (stereo unspecified) -37.5%, Cc1ncc(CO)c(CN)c1O 0.776%, O=C(c1ccccc1)c1ccccc1 -7.37%, COc1cccc(Cn2c(=O)c(-c3cccc(Cl)c3)nc3cncnc32)c1 -6.61%, O=C1Nc2ccc(Cl)cc2[C@@](C#CC2CC2)(C(F)(F)F)O1 -26.5%, C=CCN1[C@@H](C(C)C)COCCS1(=O)=O -14.3%, Cc1cc(=O)c2c(O)cc(O)c(C)c2o1 3.27%, O=C(NC[C@@H]1CCCN2CCCC[C@H]12)c1cnn(-c2nccc(-c3ccco3)n2)c1C1CC1 -13%, O=C(c1cccc(F)c1)N1CCC2(CCCN(Cc3cc(C(F)(F)F)cc(C(F)(F)F)c3)C2)CC1 1.39%, c1ccc2sc(N3CCN(Cc4ccc5c(c4)OCO5)CC3)nc2c1 -1.49% and 12.1%, N#CCCn1c(=O)c(-c2cc(F)cc(F)c2)nc2cnc(Oc3ccccc3)nc21 -3.24%, Nc1ccc(C(=O)O)c(O)c1 -14% and 9.02%, CN(Cc1ccco1)c1ncncc1-c1ccc2c(c1)OCO2 3.53%, CC(C)NC(=O)N1CC[C@@]2(CCCN(C(=O)c3cccn3C)C2)C1 2.34%, Cc1c(CCO)sc[n+]1CC(=O)c1ccccc1 -25.7%, CC(O)(COc1ccccc1)c1ccc2c(c1)CN(C/C=C/c1ccco1)CCO2 (stereo unspecified) -13.2%, NCCCS(=O)(=O)O -14.1% and -24.5%, Cc1cnc(C)c(-c2cccc3c2OC(CNC(=O)/C=C/c2ccncc2)C3)n1 (stereo unspecified) 5.86%, O=c1cc(/C=C/c2ccc([N+](=O)[O-])cc2)c2ccccc2[nH]1 -9.19%, O=C(c1ccco1)N1CCC2(CCCN(c3ccccn3)C2)CC1 -10.7%, CC(C)C[C@@H](CN=[N+]=[N-])N1CCN(Cc2ccccc2)CCC1=O -12.9%, O=C(O)C(Cc1cc(I)c(O)c(I)c1)c1ccccc1 (stereo unspecified) -0.77%, CC(C)CCC[C@@H](C)[C@H]1CC[C@H]2[C@@H]3CC[C@@H]4C[C@H](O)CC[C@]4(C)[C@H]3CC[C@]12C -0.92%, C=CCN1CCc2cc(O)c(O)cc2C(c2ccccc2)C1 (stereo unspecified) -7.96%, c1ccc2c(NC3CCNCC3)nc(-c3ccoc3)nc2c1 -18.5%, O=C(C[n+]1cccc(Br)c1)c1ccc(I)cc1 -19.1%, Nc1ncnc2nc[nH]c12 1.63%, O=C(CN1Cc2ccccc2OC(c2ccsc2)C1)NCc1ccc2c(c1)OCO2 (stereo unspecified) -3.16%, O=C(NCCCCCCNC(=O)ON=C1CCCCC1)ON=C1CCCCC1 -1.9%, COc1ccccc1C1CN(Cc2cnn(C)c2)Cc2ccccc2O1 (stereo unspecified) -14.7%, C=CCCCCCCCCCCCC(O)CC(O)CO (stereo unspecified) (tested in a mixture with another compound) -54.4%, C[N@+]12CCCC[C@@H]1CCC(=C(c1cccs1)c1cccs1)C2 -8.47%

— PubChem BioAssay AID1645887 (National Center for Advancing Translational Sciences (NCATS), 2021)
